# Test results reported in ChEMBL document CHEMBL4888484, “Replenishing the malaria drug discovery pipeline: Screening and hit evaluation of the MMV Hit Generation Library 1 (HGL1) against asexual blood stage Plasmodium falciparum ,using a nano luciferase reporter read-out” (2022).
# About 540 (0.36%) of roughly 150,000 compounds showed an effect of 50% or more. Some of the results follow.
# System: Plasmodium falciparum
# Experiment: Primary screen in NF54 nanoGlo assay, in single point, at 2uM, 72h; a lower Z score goes with more inhibition
# Format: functional, Erythrocyte
# Conditions: timepoint 72 hour
Compound,% Inhibition [%],Z score
O=C(CN1CCOCC1)N1CCN(C(=O)C2(c3cccc(Cl)c3)CCCCC2)CC1,1,-0.14
CCCCc1nc(CN2CCC(CCC(=O)N(C)Cc3ccccc3)CC2)c[nH]1,-3,0.33
O=C(NCc1ccc(F)cc1F)c1ccc(Oc2nccnc2N2CCCCC2)cc1,5,-0.54
NC(=O)c1cc(NC(=O)c2nccnc2N)c[nH]1,-3,0.61
O=C(c1nc2ccccc2s1)N1CCN(C(=O)c2cnn3c2CCCC3)CC1,-2,0.25
C[C@@H](C1CCN(Cc2cn(C)nc2-c2ccccc2F)CC1)N1CCCC1,12,-2.09
O=S(=O)(NCc1ccc(C(F)(F)F)nc1N1CCC(C(F)(F)F)CC1)C(F)(F)F,34,-0.58
O=C(NC(C1CCCC1)C1CCCC1)N1CCO[C@@H](CO)C1,-4,0.48
CC(=O)N1CCC(C(=O)N2CC[C@]34C(=O)N(Cc5cn(nn5)CCCOc5cccc(c5)[C@@H]23)c2ccccc24)CC1,-13,1.43
CC(C)c1nsc(CN2CCC3(CC2)CC3(F)F)n1,-9,1.64
CC(C)C[C@H]1C(=O)N2C[C@@H](N(C)C)C[C@H]2CN1C(=O)c1cccn1C,-9,1.06
COC[C@H]1CCN(Cc2cn(-c3ccccc3C)nc2-c2ccc(OC)c(F)c2)C1,-4,0.53
CC1(CO)CC(O)CN1CCCc1nc(-c2ccccc2)no1 (stereo unspecified),-4,0.69
CC(=O)N1CCCN(C2CN(Cc3ccccc3Cl)CC2C)CC1 (stereo unspecified),-9,1.1
CC(=O)N1CCc2cc(S(=O)(=O)N3CCCc4c(C)ccc(F)c43)ccc21,-11,1.97
Cc1nc(CNS(=O)(=O)c2c(F)cccc2Cl)oc1C,-2,0.17
CCS(=O)(=O)CCNC(=O)Nc1c(F)cccc1Cl,-13,2.48
Cc1cc2n(n1)[C@H](C(F)(F)F)CCN2C(=O)CCc1ccco1,-11,1.05
CC(C)CCNC(=O)N1CCN(c2nc3cccnc3n(C)c2=O)CC1,-5,0.71
CC(=O)N1CCC(NCc2ccc(C)s2)C(C)C1 (stereo unspecified),-16,1.78
Cc1scc(C(=O)NC2(CC(=O)O)CCOCC2)c1C,-8,1.1
Cn1ncc2c(Nc3cnn(C(C)(C)C)c3)ncnc21,6,-0.9
C#CCOc1ccc(C2Nc3ccc(CC)cc3[C@H]3OCC[C@@H]23)cc1 (stereo partly specified),-14,2.26
O=C(NCc1cnoc1-c1ccc(F)cc1)c1ccncc1,9,-1.02
CCN1CCN(Cc2cc3n(n2)CCN(C(=O)c2cccc4ccnn24)C3)CC1,-3,0.42
NC(=O)[C@@H]1CN(Cc2csc3c(Cl)cccc23)CCO1,10,-0.85
Cc1cc(C)c(C(=O)Cn2nc3ccc(-c4ccc(Cl)cc4)nn3c2=O)c(C)c1,33,-0.89

Compound,% Inhibition [%],Z score
COc1ccc(C)cc1CN[C@@H](C)c1nnc2n1CCC2,-12,1.69
C[C@]1(NC(=O)Nc2ccc(C3CCC3)cn2)CCS(=O)(=O)C1,-7,0.9
NC(=O)C[C@H]1CCCN(c2ncc(-c3ccccc3)s2)CC1,-11,1.56
CO[C@@]12CC[C@H](O)C[C@@H]1N(C(=O)c1cc(=O)n(-c3ccccc3)[nH]1)CC2,-3,0.47
COC(c1ccc(-c2cc(C)ccc2CO)cc1)C(C)N (stereo unspecified),-2,0.31
O=C(NCc1ccccn1)c1ccc2c3c(cccc13)CC2,3,-0.38
COC(=O)C(NCc1cnc(C)s1)C(C)O (stereo unspecified),38,-1.02
O=S(=O)(c1ccc2[nH]cnc2c1)N1C[C@@H]2CC[C@H]1CN(Cc1ccccc1)C2,-10,1.29
ClC1(Cl)C[C@@H]1Cn1c(C2CC2)nc2ccccc21,3,-0.48
COc1cnc(NC(=O)NC2CCS(=O)(=O)CC2)s1,0,-0.04
O=C1C[C@@H](c2ccccc2)N(C(=O)c2cccc3cc[nH]c23)CCN1,-9,1
CC(C)[C@H]1CCCN(C(=O)CCc2cncs2)CC1,-11,1.52
Cc1cc(-c2ccc(C(=O)N(CC3CC3)C[C@H]3CCCO3)cc2)nc(C)c1C#N,-8,0.96
N#Cc1ccccc1C(=O)N1C[C@@H]2CC[C@H]1CN(C(=O)c1cnccn1)C2,1,-0.24
CN(C)C(=O)[C@@H]1CCCN1c1ccc2ccc(F)cc2n1,-5,0.75
Cc1cc(CN2CCCC[C@H]2c2ncc[nH]2)no1,-8,1.22
CCc1[nH]c2c(CNC(=O)c3ncccc3OC)cc(F)cc2c1C,-3,0.28
COc1ccccc1C(O)CNC(=O)[C@H](O)c1ccccc1Cl (stereo partly specified),-7,0.89
CC(C)N(CCO)C(=O)Nc1cccnc1,3,-0.41
O=C(c1ccc2nc(-c3ccccc3)cn2c1)N1C[C@H]2CCC[C@@]2(CO)C1,7,-0.94
COc1ccc(CCNC(=O)c2c(O)c3cc(F)cc4c3n(c2=O)[C@@H](C)CC4)cc1OC,-4,0.36
CN(c1ccccc1)c1nc(N2CCCCC2)nc(-n2ccnc2)n1,-1,0.1
CC1(C(=O)N2CCCC(CCC(=O)O)C2)CC1(F)F (stereo unspecified),6,-0.81
O=S(=O)(c1ccccc1)N1CCC(OCCOc2cccnc2)CC1,-7,1.14
Cc1nn(C)c(N(C)C)c1CN[C@@H](CC(C)C)C(=O)N(C)C,-8,1.05
Cc1cc(Cl)ccc1OCC(=O)N1CCN(c2nc3ccncc3n(C)c2=O)CC1,-4,0.42
